Screen size: about 390,000 compounds; about 150 (0.038%) were called active. The inconclusive results got no clear call from the source; some entries with a clear call stand among them for comparison. Calls come from the whole dose curve; as a rule, active = well fitted inhibition curve with a large enough effect; inconclusive = small, poorly fitted or top-dose-only effect; inactive = no such curve, though single readings can be large or run the other way. Where the call is inconclusive, the potency comes from a doubtful curve fit.
biological target: Regulator of G-protein signaling 4 (Homo sapiens) (UniProt P49798); assay: Inhibitors of Regulator of G Protein Signaling (RGS) 4: qHTS; conditions: Transcreener GDP fluorescence polarization, RGS4-accelerated GTP hydrolysis; series mostly up to 114 µM; activity change, negative = inhibition: at the top concentration; note: nearly all actives have a fitted effect of over 75% in size
Chain of UniProt P49798 (P49798 whole entry, looked up): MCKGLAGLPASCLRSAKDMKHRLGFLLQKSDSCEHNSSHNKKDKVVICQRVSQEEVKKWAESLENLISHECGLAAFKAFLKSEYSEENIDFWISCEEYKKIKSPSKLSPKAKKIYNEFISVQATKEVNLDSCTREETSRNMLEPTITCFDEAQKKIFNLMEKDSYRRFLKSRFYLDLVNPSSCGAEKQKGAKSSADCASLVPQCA
How it was run: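 MLSMR compounds (23 nl, pin-transferred) preincubated 10 min at room temperature with a 500nM (2x) first reagent, then RGS4 at 900nM (2x) plus Transcreener GDP mix added; fluorescence polarization (620/688 nm) read before and after 90 min at 30 °C.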
% is set by controls: 0 for no effect and ±100 for the full control effect; potency is the fitted concentration of half-maximal effect; tags give direction and shape of the fitted curve.

SMILES | Potency | activity change, negative = inhibition
Cc1cc(C)nc(SCC(=O)c2ccc([N+](=O)[O-])cc2)n1 | inconclusive: 35.5 µM [inhibitor, full curve, poor fit] | –
COc1ccc(S(=O)(=O)N2CCC(C(=O)NCc3cccnc3)CC2)cc1Cl | – | inactive: -6.92%
CCOc1ccc(N(C)S(=O)(=O)c2ccc(C)c(C(=O)N3CCN(Cc4ccc5c(c4)OCO5)CC3)c2)cc1 | – | inactive: 0.57%
O=C(Cn1nc(-c2ccc(Cl)cc2)c2ccccc2c1=O)Nc1cccc(C(F)(F)F)c1 | inconclusive: 79.4 µM [inhibitor, partial curve, poor fit] | –
CC1(C)C2CCC13CS(=O)(=O)N[C@@H]3C2 (some centres not stated) | inconclusive: 50.1 µM [inhibitor, partial curve, poor fit] | –
O=C(Nc1cccc(C(F)(F)F)c1)c1cc(-c2cccs2)on1 | inconclusive: 89.1 µM [inhibitor, single point] | –
COc1ccc(C=NN=C2c3ccccc3-c3ccccc32)cc1O | – | inactive: -10.3%
CCOC(=O)c1c(C)[nH]c(C2=NNC(=Nc3ccccc3)SC2)c1C | inconclusive: 25.1 µM [inhibitor, full curve, poor fit] | –
ON=Cc1cccn1-c1ccccc1 | – | inactive: 7.78%
Nc1cc2nn(-c3ccccc3)nc2cc1Cl | inconclusive: 79.4 µM [inhibitor, partial curve, poor fit] | –
CCOc1ccc(-c2ccc(SC)nn2)cc1 | – | inactive: -14.4%
CCN(CCO)c1ccc(NC(=S)Nc2cccc(S(=O)(=O)N(C)C)c2)cc1 | inconclusive: 39.8 µM [inhibitor, full curve, poor fit] | –
COc1ccccc1Nc1c2c(nc3ccc(NC(=O)c4ccccc4F)cc13)CCCC2 | – | inactive: -3.91%
CCOC(=O)C1=C(c2cccc(F)c2)NC(=S)NC1C (configuration not stated) | inconclusive: 56.2 µM [inhibitor, partial curve, poor fit] | –
CCC(=O)Nc1nnc(Sc2ccc(N(C)C)cc2)s1 | – | inactive: -12.5%
S=C(c1ccc(-c2ccccc2)cc1)N1CCOCC1 | – | inactive: -9.9%
Cc1ccc(/C=N/n2c(COc3ccccc3)n[nH]c2=S)s1 | inconclusive: 100 µM [inhibitor, single point] | –
Cc1ccc(NNC(=O)c2c(C)noc2C)cc1Cl | inconclusive: 31.6 µM [inhibitor, partial curve, poor fit] | –
FC(F)(F)c1cnc(-c2cnc(-c3cccnc3)nc2)c(Cl)c1 | inconclusive: 50.1 µM [inhibitor, partial curve, poor fit] | –
O=C(O)c1cc(NCc2cc(O)ccc2O)ccc1O | inconclusive: 50.1 µM [inhibitor, partial curve, poor fit] | –
Cc1cc(C)cc(NC(=O)C(NCCN2CCOCC2)c2ccccc2)c1 (configuration not stated) | inconclusive: 79.4 µM [inhibitor, partial curve, poor fit] | –
COc1ccc(CNS(=O)(=O)c2cnc(N)nc2)cc1 | – | inactive: -9.37%
Cc1cccc(CNC(=O)c2ccc3c(c2)N(C)C(=O)C2CCCCN32)c1 (configuration not stated) | – | inactive: 11.8%

SMILES | Potency | activity change, negative = inhibition
COCCn1c(=O)sc2ccccc2c1=O | inconclusive: 20 µM [inhibitor, full curve, poor fit] | –
Cn1cnnc1Sc1ccc(/C=C(\CC(=O)O)c2nc3ccccc3s2)cc1[N+](=O)[O-] | – | inactive: -24.8%
O=C(Nc1nnc(C2CC2)s1)c1ccc(Cl)c(S(=O)(=O)N2CCc3ccccc3C2)c1 | – | inactive: -34.7%
CC(C)CC(=O)NC(=S)Nc1ccc(S(=O)(=O)N2CCCC2)cc1 | inconclusive: 22.4 µM [inhibitor, full curve, poor fit] | –
O=c1c2cccnc2[nH]c(=S)n1CCCN1CCN(c2ccccc2F)CC1 | – | inactive: 5.89%
O=C(Nc1cnn(C23CC4CC(CC(C4)C2)C3)c1)c1cnn2c(C(F)(F)F)cc(-c3ccco3)nc12 | – | inactive: -18.2%
Cc1c(NC(=S)NC(=O)c2ccc(COc3ccccc3)cc2)cccc1C(=O)O | inconclusive: 79.4 µM [inhibitor, partial curve, poor fit] | –
CN(C)c1ccc(C(=O)OCC(=O)Nc2cccc(S(=O)(=O)N3CCCC3)c2)cc1 | – | inactive: -51.3%
CC(=O)Nc1ccc(Cl)c(C(N)=O)c1 | – | inactive: 21.1%
C=CCC1NS(=O)(=O)O[C@H](CCCC)[C@@H]1O (some centres not stated) | inconclusive: 89.1 µM [inhibitor, single point] | –
COc1ccc(CCNc2ncnc3c2c(C)c(C)n3CCO)cc1OC | inconclusive: 17.8 µM [inhibitor, full curve, poor fit] | –
O=C(OC1CCOC1=O)c1cc(-c2cccs2)nc2ccccc12 (configuration not stated) | inconclusive: 79.4 µM [inhibitor, partial curve, poor fit] | –
COC(=O)c1ccc(NC(=O)c2cn(-c3ccccc3)nc2-c2ccncc2)cc1 | inconclusive: 28.2 µM [inhibitor, full curve, poor fit] | –
CCOc1ccc(-c2cn3c(n2)sc2cc(C(=O)NCCc4ccc(OC)c(OC)c4)ccc23)cc1 | inconclusive: 79.4 µM [inhibitor, partial curve, poor fit] | –
COc1ccc(C(=O)NC(=S)Nc2ccc(N3CCCC3)cc2)cc1OC | inconclusive: 50.1 µM [inhibitor, partial curve, poor fit] | –
COC(=O)CCC(=O)OC1(C)C(=O)C2=CN(c3ccc(OC)cc3)C(c3ccc(OC)cc3)=CC2=C(Br)C1=O (configuration not stated) | inconclusive: 79.4 µM [inhibitor, partial curve, poor fit] | –
Cc1ccc(C(=O)CSc2ncn[nH]2)cc1 | inconclusive: 70.8 µM [inhibitor, single point] | –
CC(=O)NC1(C(F)(F)F)NC(=O)N(C2CCCCC2)C1=O (configuration not stated) | – | inactive: -9.88%
CCOC(=O)C1(Cc2ccccc2C)CCCN(C(=O)c2cc(C3CC3)[nH]n2)C1 (configuration not stated) | – | inactive: -17.5%
Cc1ccc(Cl)cc1N1CCN(C(=O)C2CCN(S(=O)(=O)c3ccc4c(c3)oc(=O)n4C)CC2)CC1 | – | inactive: 17.6%
COc1cc(C(=O)OCC(=O)N2CCCCCC2)c([N+](=O)[O-])cc1OC | – | inactive: -5.93%
COc1cccc(CNC(=O)C2CCN(S(=O)(=O)c3c(C)nn(C)c3C)CC2)c1 | inconclusive: 79.4 µM [inhibitor, partial curve, poor fit] | –
CCCn1c(SCC(=O)Nc2cccc(S(=O)(=O)NC3=NCCCCC3)c2)nc2ccccc2c1=O | inconclusive: 44.7 µM [inhibitor, partial curve, poor fit] | –

SMILES | Potency | activity change, negative = inhibition
CCOC(=O)c1c(NC(=O)/C=C\C(=O)O)sc(C)c1-c1ccccc1 | inconclusive: 50.1 µM [inhibitor, partial curve, poor fit] | –
CCN(CC)S(=O)(=O)c1ccc(C(=O)NNC(=O)C2COc3ccccc3O2)cc1 (configuration not stated) | – | inactive: -7.35%
CCN(C(=O)CSc1nc(-c2ccccc2)cn1N)c1c(N)n(Cc2ccccc2)c(=O)[nH]c1=O | inconclusive: 79.4 µM [inhibitor, single point] | –
Cc1ccc(N2C(=O)C3C4C=CC(CNC(=S)N5CCN(c6ccccc6)CC5)(O4)C3C2=O)cc1 (configuration not stated) | inconclusive: 28.2 µM [inhibitor, full curve, poor fit] | –
CNC(=O)c1[nH]cnc1C(=O)Nc1cccc(OC)c1 | inconclusive: 89.1 µM [inhibitor, single point] | –
COc1cccc2oc(-c3ccco3)cc(=O)c12 | inconclusive: 79.4 µM [inhibitor, single point] | –
CCOC(=O)c1c(NC(=O)CSc2nc(-c3ccccc3)cc(C(F)(F)F)n2)sc(C)c1C | inconclusive: 79.4 µM [inhibitor, partial curve, poor fit] | –
CC(C)(C)S(=O)(=O)/C(C#N)=C/c1sccc1C1OCCO1 | inconclusive: 79.4 µM [inhibitor, partial curve, poor fit] | –
Cc1cc(C(=O)N/N=C/c2ccc(N(C)C)o2)cs1 | inconclusive: 31.6 µM [inhibitor, full curve, poor fit] | –
Cc1cccc(-c2nc(CN3CCCC(C(=O)NC4CCC(C)CC4)C3)c(C)o2)c1 (configuration not stated) | – | inactive: -22.6%
CC(=O)Nc1ccc(S(=O)(=O)NNc2ccc([N+](=O)[O-])cc2)cc1 | inconclusive: 44.7 µM [inhibitor, partial curve, poor fit] | –
Cn1cc(P(=O)(N2CCOCC2)N2CCOCC2)cc1P(=S)(N1CCOCC1)N1CCOCC1 | inconclusive: 50.1 µM [inhibitor, partial curve, poor fit] | –
O=C(Cc1ccccc1)Nc1ccc(NC(=O)C2CCCCC2)nc1 | – | inactive: -31.4%
COc1ccccc1N1C(=O)C(Cl)=C(Nc2ccccc2O)C1=O | inconclusive: 56.2 µM [inhibitor, partial curve, poor fit] | –
O=C(NC(=O)c1ccc(Cl)cc1)Nc1cc(N2CCCCC2)ncn1 | inconclusive: 89.1 µM [inhibitor, partial curve, poor fit] | –
c1cncc(-c2ccc3ncnc(NCc4cccs4)c3c2)c1 | inconclusive: 70.8 µM [inhibitor, partial curve, poor fit] | –
O=C(CN1CCN(Cc2ccccc2)CC1)Nc1nc2ccccc2s1 | inconclusive: 100 µM [inhibitor, partial curve, poor fit] | –
COc1ccc(CC(=O)n2[nH]c(=O)ccc2=O)cc1OC | inconclusive: 17.8 µM [inhibitor, full curve, poor fit] | –
Cc1ccc2c(c1)c1ncnc(N3CCN(c4ccccc4)CC3)c1n2C | – | inactive: 37.7%
COc1ccc(-c2nnn(CC(=O)N(CCO)C(C(=O)NC3CCCC3)c3ccncc3)n2)cc1 (configuration not stated) | inconclusive: 89.1 µM [inhibitor, single point] | –
CCC[C@@H](OS(N)(=O)=O)[C@@H](Cc1ccccc1)C(=O)OCC | inconclusive: 10 µM [inhibitor, full curve, poor fit] | –
